We go through 14 molecules from PMC12136788.

The list shows a part of the results.

The chains are these.
T1: UNK ZnF1-3 (human, UniProt Q9C0B0 31-174)
T1 sequence: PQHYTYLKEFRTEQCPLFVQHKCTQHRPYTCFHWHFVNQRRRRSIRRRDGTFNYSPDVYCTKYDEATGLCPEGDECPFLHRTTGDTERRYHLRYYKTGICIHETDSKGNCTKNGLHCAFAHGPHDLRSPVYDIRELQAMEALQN

B1: chr7:141441981:141441982:+_ENSG00000106028_ENST00000265304|hu_mus|hu_hu_hu_mus_False|8_58 (ssRNA)
RNA: GGGAGUUCUACAGUCCGACGAUCCUCAUGUCUUACAAACUGACGAAAUACCUGUAACACAGGUCUUCGAAACAUGGCUUCUAUUUUUCUUACAACCUAAUCUUUAGGCUUUUCCUAAAGGAAAGAAUAACCCGAGCAAAAUGACAACAGAGGAUUGAGCAUCA
B2: chr2:126475859:126475860:-_ENSMUSG00000027361_ENSMUST00000110424|mus_mus|motif|central (ssRNA)
RNA: GGGAGUUCUACAGUCCGACGAUCAGUUUCUGAAGAAUUGGACAAUGGGGCAGAAGCUUCAGCUAAGGCAGCUAACGUAGCGGAUACUGACGUAGAGGAGUUUCCAAACUGAACAGCAGAUACUCCUGUUUCAUCUGUGAGGUUCAACAGAGGAUUGAGCAUCA
B3: chr1:60041781:60041782:+_ENSMUSG00000041040_ENSMUST00000036540|mus_hu|mus_mus_mus_hu_False|68_68 (ssRNA)
RNA: GGGAGUUCUACAGUCCGACGAUCAAGUUUACAAUAGUAAAGUAAAUGCAGUAGUGGCAAAUUUUCUUUACUUUAGUUUCACAAAAGAAAAUCUUUAUAACCCAGUCCUAGUCUUGGACAUAGUGAAAGCUAUAAAUUCUGACUCAACAGAGGAUUGAGCAUCA
B4: chr17:34036268:34036269:+_ENSG00000006125_ENST00000262325|hu_hu|FALSE|FALSE (ssRNA)
RNA: GGGAGUUCUACAGUCCGACGAUCCAUUUUGCCAUCUUCUACAAAAAGCACAUUGAGUGGGAUGAGGCAGCUGAAGUAGAAGACAUCGAUAUUGUUUUUCACAGCCACCUGGAGGUUAUUCAGAGGUUCCAUCUUCAUGACUGGCAACAGAGGAUUGAGCAUCA
B5: chr2:71279510:71279511:+_ENSMUSG00000027018_ENSMUST00000028408|mus_hu|motif|central (ssRNA)
RNA: GGGAGUUCUACAGUCCGACGAUCCAUAAACUCUAAACAGUAUUUUAAAAUAUACAAUCUCUCCAAAAGAAAAUAUUCAACGGAAGAUAGAUAACUUUUAGUAUAAGCAAAAUGUCACAAGAUUUUAAAAUUAAAGUCAUCAGACAACAGAGGAUUGAGCAUCA
B6: chr6:72791194:72791195:-_ENSMUSG00000055239_ENSMUST00000068697|mus_hu|FALSE|FALSE (ssRNA)
RNA: GGGAGUUCUACAGUCCGACGAUCUGUGACUUAUGUGCAGAUGUGUUUGAAAGACCACAGCUUGAAAACUGAUUUUUGAAACUUCUCAACAACCAAAUGAAAAAAAAUGAAAAUCCCUAAUGGGCUUGACUUCUAGUGUAACCACAACAGAGGAUUGAGCAUCA
B7: chr3:10015032:10015033:+_ENSMUSG00000027533_ENSMUST00000029046|mus_mus|mus_mus_mus_hu_True|18_78 (ssRNA)
RNA: GGGAGUUCUACAGUCCGACGAUCGUUUUUACCAUCACAAGUGAUGAUACAAUCUGGCUUGGCCAUGGCGCCCAUUUUUCGCAAAGCUAUUCCCACUCCUAGCUCCUUCAUGUAUUCCUCAAAGCCGUUGCUGUCCACCAGGCGCAACAGAGGAUUGAGCAUCA
B8: 64139538_64139772_2624_CDS_ENSG00000143952_ENST00000409558|human|control|control (ssRNA)
RNA: GGGAGUUCUACAGUCCGACGAUCAGCUAUGUGAUCAUGGUAGUCCUUAGUGAUAUGAUCAAAAUGCCUAAGCAUGCUAUAUUGCUUAGGUGGUAGUCGAGCUUCAAAAUGAGCCCGGAUCACAGGAAUGUAGUGCACAAUUAACAACAGAGGAUUGAGCAUCA
B9: chr8:96496865:96496866:-_ENSMUSG00000031751_ENSMUST00000053766|mus_mus|FALSE|FALSE (ssRNA)
RNA: GGGAGUUCUACAGUCCGACGAUCCAAGUCCAGUCAACACCAGAAGAGGCCAUGCCUAGAGUUAAAAUGUGCAAUGUUUCUAAGGGGAAGAGAAAUGUCACAAAGAAAGUAUUACAAAGGAUUAAAUUUGUCAGCUGUCCACACCAACAGAGGAUUGAGCAUCA
B10: chr8:95500983:95500984:-_ENSG00000164944_ENST00000437199|hu_hu|hu_hu_hu_mus_True|68_68 (ssRNA)
RNA: GGGAGUUCUACAGUCCGACGAUCAGAACACAUCUAUCGAGUAAAGGACCGUACAUGACGGCCUCUAACCACUGCCUCACUAACAAACUUUCCUCUCGAGCCUCCACUGCCGCUAUUUGUACUAGCCCAGGACGGUCCCAGGCCCAACAGAGGAUUGAGCAUCA
B11: 137713489_137715367_815_CDS_ENSG00000120733_ENST00000314358|human|control|control (ssRNA)
RNA: GGGAGUUCUACAGUCCGACGAUCGAUGGAGUCCUGAUGGCUCACAACACCAUAGAGCCACCCUUCUUCCCCCUCUGGCUGAUAUAUUUUGACCCUGUGACCUUGAACACUGUAGGGACCUCGGCUGAAUAUCUCUUGUAGCUUCAACAGAGGAUUGAGCAUCA
B12: chr1:180251892:180251893:+_ENSMUSG00000026500_ENSMUST00000027781|mus_mus|motif|central (ssRNA)
RNA: GGGAGUUCUACAGUCCGACGAUCAUGAGCCAUAGAGUAUAGAUUCUCGAGCACAUGGAGUGUUCUCAACAUCUAAAAUACCGGGGAGCUUGAAGGGCUUUUUCUCCGUCUCGUGGGGCUCCGGGGCGGCCGCCAUGGGCACCACAACAGAGGAUUGAGCAUCA
B13: chr11:77336104:77336105:-_ENSG00000074201_ENST00000525064|hu_mus|hu_hu_hu_mus_False|18_58 (ssRNA)
RNA: GGGAGUUCUACAGUCCGACGAUCCUCACACAUUGCUGUGAACAUCGCCUCCAAUGCUGACUUAUCACUGGGCACAAAUCUAAAUUCAGAAAUGGGUUCAACAUCAUCAUUGUCUUCUUCCUCUUCUUCAGAGAGAGGUUCUUUCAACAGAGGAUUGAGCAUCA
B14: chr4:95690885:95690886:+_ENSMUSG00000028572_ENSMUST00000156910|mus_mus|mus_mus_mus_hu_False|28_78 (ssRNA)
RNA: GGGAGUUCUACAGUCCGACGAUCUUUAGAAAAUGUUAAAUACCAUGCUAAAAUAUUGUAAUUUUAAUAUUUUAUUUUACCAGAAGUCACAGGCAAGCAGACACUACAAACAUACAAGAAAAUGAAACUCAACAAUAUAACUGUCAACAGAGGAUUGAGCAUCA

In this experiment the target is T1, UNK ZnF1-3. The experiment is described as follows: nsRBNS (natural sequence RNA bind-n-seq); RBNS binding buffer (assumed for nsRBNS): 25 mM Tris pH 7.5, 150 mM KCl, 3 mM MgCl2, 0.01% Triton X-100, 500 ug/ml BSA, 20 U/ml SUPERase-In, 4 C; UNK is unkempt and MSI1 is Musashi-1; names of the RNAs are library labels; protein concentration not given here; high values mean tight binding.
Regarding B1, the binding signal was determined as 0.698 enrichment R. Then B2, with 1.35 enrichment R. B3 showed a binding signal of 0.542 enrichment R. Then B4, with 1.17 enrichment R; and B5, with 1.56 enrichment R.

Regarding B6, the binding signal was 1.35 enrichment R. Then B7, with 0.81 enrichment R; and B8, with 1.22 enrichment R. With B9, the binding signal amounted to 2.32 enrichment R. B10 had a binding signal of 1.12 enrichment R. Then B11, with 0.98 enrichment R; and B12, with 1.05 enrichment R; and B13, with 0.85 enrichment R. Then B14, with 2.26 enrichment R.
